# Source: the antibiotic and cytotoxicity screens of Wong et al. (2023)
# This is one part of the list.
# What was measured:
# [1] = test system: HSkMC (human skeletal muscle cells); test: cytotoxicity call (relative viability < 0.9); conditions: 10 µM
# [2] = test system: HepG2; test: cytotoxicity call (relative viability < 0.9); conditions: 10 µM
# [3] = test system: S. aureus RN4220; test: growth inhibition call (relative growth <= 0.2); conditions: 50 µM
Structure (SMILES),cytotoxicity call [1],cytotoxicity call [2],growth inhibition call [3]
COc1ccc(NC(=O)N(C)C[C@@H]2OCCCC[C@H](C)Oc3ccc(NC(=O)Nc4cccc5ccccc45)cc3C(=O)N([C@@H](C)CO)C[C@H]2C)cc1,inactive,inactive,inactive
CC(C)NC(=O)N(C)C[C@@H]1Oc2ccc(NS(=O)(=O)c3cccs3)cc2CC(=O)N([C@H](C)CO)C[C@@H]1C,inactive,inactive,inactive
Clc1ccc(/C=N/Cc2ccc(-c3cccs3)s2)cc1,inactive,active,inactive
C[C@@H]1CN([C@H](C)CO)C(=O)Cc2cc(NS(=O)(=O)c3cn(C)cn3)ccc2O[C@@H]1CN(C)Cc1ccccc1,inactive,inactive,inactive
C[C@H](CO)N1C[C@H](C)[C@@H](CN(C)S(=O)(=O)c2ccc(Cl)cc2)Oc2c(NC(=O)c3cnccn3)cccc2C1=O,inactive,inactive,inactive
CN(C)CCN1CCN(C)C2(CCN(C(=O)c3ccn[nH]3)CC2)C1=O,inactive,inactive,inactive
Nc1cccc(Cn2cncn2)c1,inactive,inactive,inactive
C[C@@H](NC(=O)C[C@H]1CC[C@@H](NC(=O)CN2CCOCC2)[C@@H](CO)O1)c1ccccc1,inactive,inactive,inactive
COc1ccc(NC(=O)N(C)C[C@@H]2OCCCC[C@@H](C)Oc3ccc(NC(=O)Nc4c(C)noc4C)cc3C(=O)N([C@H](C)CO)C[C@H]2C)cc1,inactive,inactive,inactive
Cc1noc(C)c1NC(=O)Nc1ccc2c(c1)C(=O)N([C@@H](C)CO)C[C@@H](C)[C@@H](CN(C)CC1CCCCC1)OCCCC[C@H](C)O2,inactive,inactive,inactive
O=C(C[C@@H]1C=C[C@H](NC(=O)C2CCC2)[C@@H](CO)O1)NCCCN1CCOCC1,inactive,inactive,inactive
C[C@@H]1CCCCO[C@H](CN(C)Cc2ccc(Cl)c(Cl)c2)[C@@H](C)CN([C@@H](C)CO)C(=O)c2cc(NC(=O)Nc3ccc4c(c3)OCO4)ccc2O1,inactive,inactive,inactive
Cc1noc(C)c1S(=O)(=O)N(C)C[C@H]1Oc2ccc(NS(=O)(=O)c3cn(C)cn3)cc2CC(=O)N([C@@H](C)CO)C[C@H]1C,inactive,inactive,inactive
C[C@H](CO)N1C[C@H](C)[C@H](CN(C)C(=O)Nc2ccc3c(c2)OCO3)Oc2c(NC(=O)c3ccc(-c4nccs4)cc3)cccc2C1=O,inactive,inactive,inactive
C[C@@H]1CN([C@H](C)CO)C(=O)c2cc(NC(=O)CCCN(C)C)ccc2O[C@H]1CN(C)C(=O)Nc1ccc(F)cc1,inactive,inactive,inactive
C[C@@H]1CCCCO[C@H](CN(C)S(=O)(=O)c2cn(C)cn2)[C@H](C)CN([C@H](C)CO)C(=O)c2cc(NC(=O)CCCN(C)C)ccc2O1,inactive,inactive,inactive
COCC(=O)N1CCCc2c(C#N)nn(C)c2C1,inactive,inactive,inactive
C[C@H](CO)N1C[C@H](C)[C@H](CN(C)S(=O)(=O)c2cn(C)cn2)Oc2c(NC(=O)Nc3ccccc3)cccc2C1=O,inactive,inactive,inactive
C[C@H](CO)N1C[C@H](C)[C@H](CN(C)Cc2ccc(Cl)c(Cl)c2)Oc2c(NC(=O)c3nc4ccccc4s3)cccc2C1=O,inactive,inactive,inactive
C[C@@H]1CCCCO[C@H](CN(C)C(=O)Nc2ccc(F)cc2)[C@@H](C)CN([C@H](C)CO)C(=O)c2cc(NC(=O)CCC(F)(F)F)ccc2O1,inactive,inactive,inactive
Cc1noc(C)c1S(=O)(=O)N(C)C[C@@H]1Oc2ccc(NS(=O)(=O)c3ccc(F)cc3)cc2CC(=O)N([C@@H](C)CO)C[C@@H]1C,inactive,inactive,inactive
COc1ccc(CN(C)C[C@@H]2OCCCC[C@@H](C)Oc3ccc(NC(=O)Nc4ccccc4)cc3C(=O)N([C@@H](C)CO)C[C@@H]2C)cc1,inactive,inactive,inactive
C[C@]12C=CC(=O)N[C@@H]1CC[C@@H]1[C@@H]2CC[C@]2(C)[C@@H](C(=O)Nc3cc(C(F)(F)F)ccc3C(F)(F)F)CC[C@@H]12,inactive,inactive,inactive
COc1cccc(NC(=O)N[C@@H]2CC[C@@H](CC(=O)N3CCN(C)CC3)O[C@@H]2CO)c1,inactive,active,inactive
COc1ccc(C#Cc2ccc([C@H]3[C@H](CO)N4CCCCN(S(=O)(=O)c5cn(C)cn5)C[C@@H]34)cc2)cc1,inactive,inactive,inactive
